# According to PubChem BioAssay AID485281 (National Center for Advancing Translational Sciences (NCATS), 2010):
# Hit rate of the full screen: of about 350,000 compounds, about 260 (0.074%) were called active. The shares of active, inactive and inconclusive entries below differ from those in the screen. Calls follow the shape of the dose curve; as a rule, active = well fitted inhibition curve with a large enough effect; inconclusive = small, poorly fitted or top-dose-only effect; inactive = no such curve, though single readings can be large or run the other way. Potencies beside an inconclusive call are fits to weak or partial responses and may not hold up.
# Biological target: Ferritin light chain (Equus caballus) (UniProt P02791)
# Assay: qHTS Assay for Identification of Novel General Anesthetics; also: nearly all actives have a fitted effect of over 20% in size
# Conditions: apoferritin/1-aminoanthracene competitive binding, fluorescence; activity change, negative = displacement: at 77.5 µM (top of the series)
# Method in brief: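 Horse-spleen apoferritin (10 uM) in 50% saturated 1-aminoanthracene in PBS was incubated 10 min at room temperature with compound. Fluorescence (ex 380, em 535 nm) was normalized to free and bound 1-AMA, with concentration-response fitted by a four-parameter Hill equation.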
# % is scaled to controls: 0 for no effect and ±100 for the full control effect; potency is read from the fitted curve at half-maximal effect; tags tell the direction and shape of the fitted curve.
# Chain of UniProt P02791 (P02791 whole entry, looked up): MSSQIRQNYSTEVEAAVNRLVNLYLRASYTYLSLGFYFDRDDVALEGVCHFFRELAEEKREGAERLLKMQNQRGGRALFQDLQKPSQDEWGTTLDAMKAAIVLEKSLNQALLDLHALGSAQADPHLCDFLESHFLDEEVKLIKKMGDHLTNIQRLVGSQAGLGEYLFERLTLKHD
Compound,Potency,"activity change, negative = displacement"
O=C(CSc1ccc(Cl)cc1)NN=C1CCCCCC1,"inconclusive: 12.6 µM [inhibitor, partial curve]",–
FC(F)(F)c1cc(-c2ccco2)nc(NCc2cccnc2)n1,"inconclusive: 44.7 µM [inhibitor, single point]",–
Cc1cc(SCc2cc(=O)[nH]c3ccccc23)nc2ccccc12,"inconclusive: 8.91 µM [inhibitor, partial curve]",–
COc1ccc(CCNc2nc(SCc3ccccc3F)nc3ccccc23)cc1OC,"inconclusive: 10 µM [inhibitor, full curve]",–
CCOC(=O)C(=O)c1csc(NC(=O)COc2ccc(N(C)S(=O)(=O)c3ccc(F)cc3)cc2)n1,"inconclusive: 22.4 µM [inhibitor, partial curve]",–
O=C(NNC(=O)c1nn(-c2ccc(F)cc2)ccc1=O)c1ccccc1Cl,"inconclusive: 35.5 µM [inhibitor, single point]",–
O=C(Cn1nc(-c2ccccc2)c2ccccc2c1=O)Nc1cccnc1,"inconclusive: 44.7 µM [inhibitor, single point]",–
Oc1cc2c(cc1C(c1ccc(Cl)c(Cl)c1)N1CCCC1)OCO2 (stereo unspecified),"inconclusive: 14.1 µM [inhibitor, partial curve]",–
Cc1ccc(S(=O)(=O)Nc2ccc(NC(=O)/C=C/C(=O)O)cc2)cc1,"inconclusive: 31.6 µM [inhibitor, partial curve]",–
O=C(CNCc1ccco1)Nc1ccc(Oc2ccccc2)cc1,"inconclusive: 31.6 µM [inhibitor, partial curve]",–
OC(CNCC1CCCO1)Cn1c2ccc(Cl)cc2c2cc(Cl)ccc21 (stereo unspecified),–,inactive: -12.7%
CCCn1c2ccccc2c2cnn(CC(=O)N(CC)c3cc(C)ccc3C)c(=O)c21,–,inactive: -5.87%
CN(C)Cc1nc(-c2cn(C)c3ccccc23)no1,–,inactive: -6.88%
Cc1ccc(CNC(=O)Cn2nc(N3CCN(c4ccccc4)CC3)ccc2=O)cc1,"inconclusive: 56.2 µM [inhibitor, single point]",–
Cc1cccc(N2CCN(C(=O)c3cnn(-c4ccc(F)cc4F)c3C3CCN(C(=O)OC(C)(C)C)CC3)CC2)c1C,"inconclusive: 1.12 µM [inhibitor, full curve]",–
COc1cc(C(=O)Nc2ccc(Cl)c(C(F)(F)F)c2)cc(OC)c1OC,–,inactive: -7.2%
CCc1ccccc1NC(=O)c1ccc(Cn2nc(N3CCN(c4ccccc4)CC3)ccc2=O)o1,"inconclusive: 5.62 µM [inhibitor, partial curve]",–
CCOC(=O)N1CCN(C(=O)CCc2nc3sc4c(c3c(=O)[nH]2)CCCC4)CC1,–,inactive: -3.28%
O=C1CSCC(=O)N1Cc1ccc(Cl)cc1Cl,"inconclusive: 50.1 µM [inhibitor, single point]",–
COc1cc2c(cc1OC)C1(Nc3c-2c(Cc2ccccc2)nn3-c2ccccc2)C(=O)Nc2ccccc21 (stereo unspecified),"inconclusive: 14.1 µM [inhibitor, full curve, poor fit]",–
Nc1nc(SCC(=O)c2ccc(Br)s2)n[nH]1,"inconclusive: 35.5 µM [inhibitor, partial curve]",–
O=[N+]([O-])C1=CC=C2C(=NC3(CCCCC3)N2O)C1=NCCO,"inconclusive: 22.4 µM [inhibitor, partial curve]",–

Compound,Potency,"activity change, negative = displacement"
CC(=O)NC(N1CCCCC1)C(F)(F)C(F)(F)C(F)(F)C(F)F (stereo unspecified),"inconclusive: 44.7 µM [inhibitor, single point]",–
Cc1nc2c3ccccc3nc(NNC(=O)CCC(=O)N3CCN(c4cc(Cl)ccc4C)CC3)n2n1,"inconclusive: 39.8 µM [inhibitor, single point]",–
CCOc1cc(S(=O)(=O)Nc2ccccc2CC)ccc1Cl,"inconclusive: 3.98 µM [inhibitor, full curve, poor fit]",–
CCc1cccc(NC(=O)CSc2nc3ccccc3nc2N2CCCCC2)c1,–,inactive: -4.84%
COc1ccc(OCC(=O)Nc2cccc(C(=O)OCc3cc(=O)n4nc(C)sc4n3)c2)cc1,–,inactive: 52.4%
COc1cccc(NC(=O)c2sc3nc(C)c(C(=O)Nc4ccc(C)cc4C)c(-c4ccco4)c3c2N)c1,–,inactive: 92%
CNc1ccc(S(=O)(=O)NCC(=O)OCC(=O)Nc2cccc(Cl)c2Cl)cc1[N+](=O)[O-],"inconclusive: 50.1 µM [inhibitor, single point]",–
O=[N+]([O-])c1ccc(N(CCO)Cc2ccccc2)c([N+](=O)[O-])c1,"inconclusive: 31.6 µM [inhibitor, partial curve]",–
CCn1nnnc1NCc1ccc(OCc2ccc(F)cc2Cl)c(OC)c1,"inconclusive: 31.6 µM [inhibitor, partial curve]",–
CCn1cc(S(=O)(=O)c2ccc(OC)cc2)c(=O)c2cc(F)c(N3CCCCCC3)cc21,–,inactive: -16.4%
Cc1ccccc1Nc1cccc2nonc12,"inconclusive: 10 µM [inhibitor, partial curve]",–
CCOc1ccccc1NC(=O)CSc1ccc(-c2ccco2)nn1,"inconclusive: 25.1 µM [inhibitor, partial curve]",–
Cc1c(C(=O)NCCSCc2ccc(Cl)cc2Cl)cccc1[N+](=O)[O-],"inconclusive: 39.8 µM [inhibitor, partial curve]",–
CCN(CCN(C)C)C(=O)c1ccc2c(c1NCCO)C(=O)c1ccccc1C2=O,"inconclusive: 35.5 µM [inhibitor, partial curve]",–
O=C(COc1cccc2cccnc12)Nc1ccccc1N1CCOCC1,–,inactive: -13.5%
C=CCn1cc(C(=O)NCc2ccc3c(c2)OCO3)c(=O)c2cc(S(=O)(=O)N(CC)CC)ccc21,"inconclusive: 7.94 µM [inhibitor, partial curve]",–
CCOc1ccc(NC(=O)C2=C(C)C(=O)OC23CCC(C)CC3)cc1 (stereo unspecified),"inconclusive: 56.2 µM [inhibitor, single point]",–
COc1ccc(CCCC(=O)NC2CCCCC2C)c(C)c1 (stereo unspecified),"inconclusive: 39.8 µM [inhibitor, partial curve]",–
Clc1ccccc1COc1ccc(/C=N/n2cnnc2)cc1,–,inactive: 1.92%
CCOc1cccc(NC(=O)Cn2nc(-c3ccc4c(c3)OCCO4)ccc2=O)c1,"inconclusive: 10 µM [inhibitor, partial curve]",–
Nc1ccc(SC(F)(F)F)cc1C(=O)c1ccccc1,"inconclusive: 25.1 µM [inhibitor, partial curve]",–
C=CCNC(=O)/C(C#N)=C/c1cn(-c2ccccc2)nc1-c1ccc(OC)c([N+](=O)[O-])c1,"inconclusive: 4.47 µM [inhibitor, full curve]",–

Compound,Potency,"activity change, negative = displacement"
COc1cccc(C(=O)OCc2ccccc2C#N)c1O,"inconclusive: 50.1 µM [inhibitor, single point]",–
CCN(CC)S(=O)(=O)c1ccc(Cc2ncc(C(F)(F)F)cc2Cl)s1,"inconclusive: 25.1 µM [inhibitor, partial curve]",–
COc1cc(NC(=O)C(CC(C)C)N2Cc3ccccc3C2=O)cc(OC)c1 (stereo unspecified),–,inactive: -11.1%
CCCCNC(=O)CCn1nc(-c2ccc(Cl)cc2)c2ccccc2c1=O,"inconclusive: 28.2 µM [inhibitor, partial curve]",–
c1ccc(COc2ccc(CNCc3cccnc3)cc2)cc1,"inconclusive: 25.1 µM [inhibitor, partial curve]",–
Cc1c(C(=O)NCc2cccc(F)c2)oc2c1-c1[nH]ncc1CC2,–,inactive: -16.5%
CC(NC(=O)c1ccc(CS(=O)(=O)c2cccc(C(F)(F)F)c2)o1)c1ccc2c(c1)OCCO2 (stereo unspecified),"inconclusive: 50.1 µM [inhibitor, single point]",–
O=C(NC(=S)N(CCCCO)C1CCCCC1)c1sc2ccccc2c1Cl,"inconclusive: 31.6 µM [inhibitor, single point]",–
CSc1ccc(CNC(=O)c2sc3ncnc(N(C)C4CCCCC4)c3c2C)cc1,–,inactive: -9.95%
CCSc1nnc(NC(=O)Cc2ccc(OC)cc2)s1,"inconclusive: 8.91 µM [inhibitor, partial curve]",–
CCNC(=O)c1cc(Cl)ccc1OC,–,inactive: -2.11%
N#C/C(=N\Nc1cc(Cl)cc(Cl)c1)c1nnc2n1CCCCC2,"inconclusive: 44.7 µM [inhibitor, single point]",–
O=C(COc1ccccc1/C=C\c1[nH]c(=O)[nH]c(=O)c1[N+](=O)[O-])Nc1ccccc1,–,inactive: -11.5%
CC1CCN(C(=O)COC(=O)c2n[nH]c3ccccc23)CC1,"inconclusive: 31.6 µM [inhibitor, partial curve]",–
COC(=O)c1ccc2c(=O)n(CCc3ccc(S(N)(=O)=O)cc3)c(SCC(=O)C(C)(C)C)nc2c1,"inconclusive: 39.8 µM [inhibitor, single point]",–
Cc1ccc(-c2nc3c(c(=O)[nH]c(=O)n3CC(C)C)n2CC(C)C)cc1[N+](=O)[O-],"inconclusive: 17.8 µM [inhibitor, partial curve]",–
Cc1cc(C)c(NC(=O)C2CCN(C(=O)N3CCOc4ccccc43)CC2)c(C)c1,"inconclusive: 3.55 µM [inhibitor, single point]",–
Cc1ccc(C(=O)NC(=S)N(C)C2CCCCC2)cc1,"inconclusive: 28.2 µM [inhibitor, single point]",–
CCCCOc1ccc(C(=O)NCC(=O)OC2CCOC2=O)cc1 (stereo unspecified),"inconclusive: 11.2 µM [inhibitor, partial curve]",–
O=C(CNC(=O)c1cccc(F)c1)OCC(=O)N1CCCc2ccccc21,"inconclusive: 28.2 µM [inhibitor, single point]",–
O=C(CCOc1ccccc1)OCC(=O)c1cc2ccccc2o1,"inconclusive: 31.6 µM [inhibitor, partial curve]",–
Cc1cc(C)nc(SCc2ccc([N+](=O)[O-])cc2)n1,"inconclusive: 28.2 µM [inhibitor, partial curve]",–
